The values below come from the supplement of paper PMC9446081.

The whole screen tested about 39,000 compounds, of which about 220 (0.56%) showed activity. The list shows a part of the results.
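Note: static incubation at 37 °C against the wild-type strain, values averaged over two biological replicates.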

For the test, the system named is Escherichia coli K-12 BW25113. As to the kind of experiment: relative growth (OD600 normalised to plate interquartile mean) (fraction); higher = less growth inhibition, active = 0.2 or less. Conditions: 50 µM; LB; incubation time: overnight (16-24 h).
As for `C[C@H](CO)N1C[C@H](C)[C@H](CN(C)C(=O)c2ccc3c(c2)OCO3)Oc2ncc(C3=CCCC3)cc2C1=O`, the relative growth is inactive: 0.988. With `OCCN1CCN(CCCN2c3ccccc3Sc3ccc(Cl)cc32)CC1`, the relative growth was inactive: 0.913. In the case of `NC(=O)CCN1C(=O)c2ccccc2C1=O`, the relative growth is inactive: 1.01. The value for `CO[C@H]1O[C@H](COS(=O)(=O)O)[C@@H](O[C@@H]2O[C@@H](C(=O)O)[C@@H](OC)[C@H](O)[C@H]2OS(=O)(=O)O)[C@H](O)[C@H]1NS(=O)(=O)O` was inactive: 0.982.

As for `C[C@H]1CCCCO[C@@H](CN(C)C(=O)NC2CCCCC2)[C@@H](C)CN([C@@H](C)CO)C(=O)c2cc(NC(=O)NC3CCCCC3)ccc2O1`, the relative growth is inactive: 1.01.

As for `CCS(=O)(=O)N1C[C@]2(CCN(CC2)Cc2cccc(c2)OC)c2c(n(c3cc(ccc23)OC)C)[C@@H]1CO`, the relative growth was inactive: 1.01.

On to `Cl.NCCCC(=O)O` [gamma-AMINOBUTYRIC ACID HYDROCHLORIDE], for which the relative growth is inactive: 0.905. For `COCCN1C(=O)C[C@@H]2[C@@H]1CCN2S(=O)(=O)c1cn(C)cn1`, the relative growth is inactive: 1.03.

As for `COCC#Cc1ccc2c(c1)O[C@@H](CN(C)C(=O)C1CCCCC1)[C@@H](C)CN([C@@H](C)CO)S2(=O)=O`, the relative growth was inactive: 1.01.

In the case of `C[C@@H]1CCCCO[C@H](CN(C)Cc2ccncc2)[C@@H](C)CN([C@@H](C)CO)C(=O)c2cc(NS(C)(=O)=O)ccc2O1`, the relative growth was inactive: 1.

Regarding `CO[C@@H](CN(C)S(=O)(=O)c1ccc(F)cc1)[C@@H](C)CN([C@H](C)CO)S(=O)(=O)c1cccc(Cl)c1`, the relative growth is inactive: 1.03. The value for `C[C@H]1CN([C@@H](C)CO)C(=O)Cc2cc(NS(=O)(=O)c3ccc(F)cc3)ccc2O[C@@H]1CN(C)CC1CC1` was inactive: 1.02. In the case of `C[C@H]1CN([C@@H](C)CO)C(=O)c2cc(NC(=O)Nc3ccc(F)cc3)ccc2O[C@@H]1CN(C)Cc1ccc(Cl)c(Cl)c1`, the relative growth was inactive: 1.04.

Take `C[C@@H]1CN([C@H](C)CO)C(=O)c2cc(NC(=O)Nc3ccc(C(F)(F)F)cc3)ccc2O[C@@H]1CN(C)S(C)(=O)=O`: the relative growth is inactive: 0.986. The value for `COc1ccccc1C#Cc1cnc2c(c1)C(=O)N([C@@H](C)CO)C[C@@H](C)[C@@H](CN(C)C(=O)CC1CC1)O2` was inactive: 0.988.

Consider `Cc1noc(C)c1NC(=O)N(C)C[C@H]1Oc2ccc(NS(=O)(=O)c3cn(C)cn3)cc2C(=O)N([C@@H](C)CO)C[C@H]1C`, for which the relative growth was inactive: 1.01. The result for `C[C@@H]1CN([C@H](C)CO)C(=O)c2cc(NC(=O)CCCN(C)C)ccc2O[C@@H]1CN(C)C(=O)Nc1ccc(F)cc1` reads inactive: 1.01.
